Reference: patent US20240376128A1, “N-CYCLOPROPYLPYRIDO [4, 3-D] PYRIMIDIN-4-AMINE DERIVATIVES AND USES THEREOF” (Jacobio Pharmaceuticals Co., Ltd., priority 2021, published 2024)

How the values were obtained:
[1] = molecular target: T1, K-Ras G12V (Homo sapiens, UniProt P01116, G12V); test: SOS1 catalyzed nucleotide exchange assay (GDP form K-Ras), TR-FRET; conditions: read-out: Biochemical assays, IC50, K-Ras G12V GDP
Experimental: The parameters were F486: Excitation 340 nm, Emission 486 nm, Lag time 100 pas, Integration time 200 pas; F515: Excitation 340 nm, Emission 515 nm, Lag time 100 pas, Integration time 200 pas. TR-FRET ratios for each individual wells were calculated by equation: TR-FRET ratio=(Signal F515/Signal F486)*10000.

[2] = molecular target: K-Ras G12D (Homo sapiens, UniProt P01116, G12D); test: GTP-K-Ras (GppNp-K-Ras) and cRAF interaction assay, HTRF; conditions: read-out: Biochemical assays, IC50, K-Ras G12D GppNp
Source text: (§1) GppNp is an analog of GTP.

[3] = molecular target: T1, K-Ras G12V; test: as above; conditions: read-out: Biochemical assays, IC50, K-Ras G12V GppNp
Source text: as §1

SMILES: C#Cc1c(F)ccc2cc(O)cc(-c3ncc4c(NC5CC5)nc(OC[C@@]56CCCN5C[C@H](F)C6)nc4c3F)c12 [Compound 18, 4-(4-(cyclopropylamino)-8-fluoro-2-(((2R,7aS)-2-fluorotetrahydro-1H-pyrrolizin-7a(5H)-yl)methoxy)pyrido[4,3-d]pyrimidin-7-yl)-5-ethynyl-6-fluoronaphthalen-2-ol formic acid]
- IC50 [1]: 2.27 nM
- IC50 [2]: 637 nM
- IC50 [3]: 1590 nM
